Measured values taken from the supplement of paper PMC4967469.
IC50 is the fitted dose that halves viability relative to control wells, and lower means more sensitive; where the fit passes the top or lowest dose, that dose stands as a limit. For AUC the same curve is integrated over the 256-fold range of doses and scaled to a fraction; values near 1 show little effect. An inferred top dose was derived from the fitted curves, not read from the paper. For part of these data: An entry number marks a drug with two screens in the source, which often give different values.

Tests used:
Assay in all cases: Viability of human cancer cell lines after 72 h of drug (GDSC screen)
Shikonin = compound: CC(C)=CC[C@@H](O)C1=CC(=O)c2c(O)ccc(O)c2C1=O [Shikonin]; conditions: top dose 16 µM; top dose inferred
Protocol: (§1)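 Human cancer cell lines in 384-well plates, medium with 10% serum, drug for 72 h over a 256-fold dose range (nine 2-fold or five 4-fold steps up to the top dose). Adherent lines were fixed and stained with the nucleic acid dye Syto60, suspension lines read with resazurin; signal relative to control wells, capped at 0 and 100%. One two-parameter sigmoid per drug and line, fitted in a mixed model over all curves with the slope shared within a line.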

CGP-082996 (CINK4) = compound: CCNc1cc(NC2CCC(O)CC2)nc(Nc2ccc3c(ccn3Cc3ccccc3)c2)n1 [CGP-082996 (CINK4)]; conditions: top dose 5.12 µM; top dose inferred
Protocol: as §1

HG-5-113-01 = compound: CNC(=O)c1ccc(Nc2cc(Nc3ccccc3S(=O)(=O)C(C)C)c3cc[nH]c3n2)nc1 [HG-5-113-01]; conditions: top dose 10 µM; top dose inferred
Protocol: as §1

A-770041 = compound: COc1cc(-c2nn([C@H]3CC[C@H](N4CCN(C(C)=O)CC4)CC3)c3ncnc(N)c23)ccc1NC(=O)c1cc2ccccc2n1C [A-770041]; conditions: top dose 5.12 µM; top dose inferred
Protocol: as §1

XMD8-85 = compound: COc1cc(N2CCN(C)CC2)ccc1Nc1ncc2c(n1)N(C)c1ccccc1C(=O)N2C [XMD8-85]; conditions: top dose 8 µM; top dose inferred
Protocol: as §1

BMS-536924 = compound: Cc1cc(N2CCOCC2)cc2[nH]c(-c3c(NC[C@@H](O)c4cccc(Cl)c4)cc[nH]c3=O)nc12 [BMS-536924]
Protocol: as §1

BIRB 0796 = compound: Cc1ccc(-n2nc(C(C)(C)C)cc2NC(=O)Nc2ccc(OCCN3CCOCC3)c3ccccc23)cc1 [BIRB 0796]; conditions: top dose 10 µM; top dose inferred
Protocol: as §1

SB-525334 = compound: Cc1cccc(-c2[nH]c(C(C)(C)C)nc2-c2ccc3nccnc3c2)n1 [SB-525334]; conditions: top dose 20 µM; top dose inferred
Protocol: as §1

VX-702 = compound: NC(=O)c1ccc(N(C(N)=O)c2c(F)cccc2F)nc1-c1ccc(F)cc1F [VX-702]; conditions: top dose 2 µM; top dose inferred
Protocol: as §1

Olaparib = compound: O=C(c1cc(Cc2n[nH]c(=O)c3ccccc23)ccc1F)N1CCN(C(=O)C2CC2)CC1 [Olaparib]
Protocol: as §1

Wee1 inhibitor 681640 = compound: O=C1NC(=O)c2c1c(-c1ccccc1Cl)cc1[nH]c3ccc(O)cc3c21 [Wee1 inhibitor 681640]; conditions: top dose 2 µM; top dose inferred
Protocol: as §1

[1] = top dose 4 µM, screen: GDSC drug entry 1091, top dose inferred
[2] = top dose 5.12 µM, screen: GDSC drug entry 62
[3] = top dose 5 µM, screen: GDSC drug entry 1017, top dose inferred
[4] = top dose 10 µM, screen: GDSC drug entry 1495

Row | Cell Line | AUC (Shikonin) | IC50 (Shikonin) [µM] | AUC (CGP-082996 (CINK4)) | IC50 (CGP-082996 (CINK4)) [µM] | AUC (HG-5-113-01) | IC50 (HG-5-113-01) [µM] | AUC (A-770041) | IC50 (A-770041) [µM] | AUC (XMD8-85) | IC50 (XMD8-85) [µM] | AUC (BMS-536924; [1]) | IC50 (BMS-536924; [1]) [µM] | AUC (BMS-536924; [2]) | IC50 (BMS-536924; [2]) [µM] | AUC (BIRB 0796) | IC50 (BIRB 0796) [µM] | AUC (SB-525334) | IC50 (SB-525334) [µM] | AUC (VX-702) | IC50 (VX-702) [µM] | AUC (Olaparib; [3]) | IC50 (Olaparib; [3]) [µM] | AUC (Olaparib; [4]) | IC50 (Olaparib; [4]) [µM] | AUC (Wee1 inhibitor 681640) | IC50 (Wee1 inhibitor 681640) [µM]
1 | TUR (B-cell lymphoma, suspension) | 0.425 | 0.633 | 0.986 | > 5.12 | 0.547 | 0.831 | 0.988 | > 5.12 | 0.919 | > 8 | 0.905 | > 4 | 0.986 | > 5.12 | 0.988 | > 10 | 0.978 | > 20 | 0.966 | > 2 | 0.979 | > 5 | 0.972 | > 10 | 0.905 | > 2
2 | VA-ES-BJ (soft tissue, adherent) | 0.361 | 0.403 | 0.976 | > 5.12 | 0.855 | 8.72 | 0.921 | > 5.12 | 0.957 | > 8 | 0.984 | > 4 | 0.932 | > 5.12 | 0.98 | > 10 | 0.971 | > 20 | 0.968 | > 2 | 0.889 | > 5 | 0.976 | > 10 | 0.876 | > 2
3 | VCaP (prostate, adherent) | 0.437 | 0.669 | 0.956 | > 5.12 | 0.816 | 5.83 | 0.98 | > 5.12 | 0.91 | > 8 | 0.846 | 3.09 | 0.465 | 0.256 | 0.976 | > 10 | 0.56 | 1.83 | 0.987 | > 2 | 0.987 | > 5 | 0.979 | > 10 | 0.986 | > 2
4 | WIL2-NS (lymphoid neoplasm, suspension) | 0.413 | 0.606 | 0.983 | > 5.12 | 0.835 | 4.94 | 0.709 | 1.09 | 0.886 | 6.01 | 0.962 | > 4 | 0.895 | 4.17 | 0.992 | > 10 | 0.977 | > 20 | 0.974 | > 2 | 0.975 | > 5 | 0.951 | > 10 | 0.992 | > 2
5 | WSU-DLCL2 (B-cell lymphoma, suspension) | 0.694 | 3.14 | 0.993 | > 5.12 | 0.96 | > 10 | 0.993 | > 5.12 | 0.989 | > 8 | 0.712 | 0.876 | 0.992 | > 5.12 | 0.99 | > 10 | 0.991 | > 20 | 0.986 | > 2 | 0.986 | > 5 | 0.912 | > 10 | 0.984 | > 2
6 | no-11 (glioma, adherent) | 0.471 | 0.814 | 0.948 | > 5.12 | 0.914 | > 10 | 0.924 | > 5.12 | 0.918 | > 8 | 0.978 | > 4 | 0.893 | > 5.12 | 0.971 | > 10 | 0.932 | > 20 | 0.977 | > 2 | 0.961 | > 5 | 0.979 | > 10 | 0.983 | > 2
